Paper PMC4336329 (PLoS ONE, 2015)
The whole screen tested about 310,000 compounds, of which about 14,000 (4.5%) showed an effect of 50% or more. The effect is printed as a negative number. The list shows a part of the results.

Biological target: human ether-à-go-go-related gene (hERG) potassium channel (human, UniProt Q12809)
Test: primary screen, population patch clamp on CHO cells stably expressing hERG
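Also: peak tail current of the secondary pulse compared with the same well before compound.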

Chain of human ether-à-go-go-related gene (hERG) potassium channel (Q12809 whole entry, looked up): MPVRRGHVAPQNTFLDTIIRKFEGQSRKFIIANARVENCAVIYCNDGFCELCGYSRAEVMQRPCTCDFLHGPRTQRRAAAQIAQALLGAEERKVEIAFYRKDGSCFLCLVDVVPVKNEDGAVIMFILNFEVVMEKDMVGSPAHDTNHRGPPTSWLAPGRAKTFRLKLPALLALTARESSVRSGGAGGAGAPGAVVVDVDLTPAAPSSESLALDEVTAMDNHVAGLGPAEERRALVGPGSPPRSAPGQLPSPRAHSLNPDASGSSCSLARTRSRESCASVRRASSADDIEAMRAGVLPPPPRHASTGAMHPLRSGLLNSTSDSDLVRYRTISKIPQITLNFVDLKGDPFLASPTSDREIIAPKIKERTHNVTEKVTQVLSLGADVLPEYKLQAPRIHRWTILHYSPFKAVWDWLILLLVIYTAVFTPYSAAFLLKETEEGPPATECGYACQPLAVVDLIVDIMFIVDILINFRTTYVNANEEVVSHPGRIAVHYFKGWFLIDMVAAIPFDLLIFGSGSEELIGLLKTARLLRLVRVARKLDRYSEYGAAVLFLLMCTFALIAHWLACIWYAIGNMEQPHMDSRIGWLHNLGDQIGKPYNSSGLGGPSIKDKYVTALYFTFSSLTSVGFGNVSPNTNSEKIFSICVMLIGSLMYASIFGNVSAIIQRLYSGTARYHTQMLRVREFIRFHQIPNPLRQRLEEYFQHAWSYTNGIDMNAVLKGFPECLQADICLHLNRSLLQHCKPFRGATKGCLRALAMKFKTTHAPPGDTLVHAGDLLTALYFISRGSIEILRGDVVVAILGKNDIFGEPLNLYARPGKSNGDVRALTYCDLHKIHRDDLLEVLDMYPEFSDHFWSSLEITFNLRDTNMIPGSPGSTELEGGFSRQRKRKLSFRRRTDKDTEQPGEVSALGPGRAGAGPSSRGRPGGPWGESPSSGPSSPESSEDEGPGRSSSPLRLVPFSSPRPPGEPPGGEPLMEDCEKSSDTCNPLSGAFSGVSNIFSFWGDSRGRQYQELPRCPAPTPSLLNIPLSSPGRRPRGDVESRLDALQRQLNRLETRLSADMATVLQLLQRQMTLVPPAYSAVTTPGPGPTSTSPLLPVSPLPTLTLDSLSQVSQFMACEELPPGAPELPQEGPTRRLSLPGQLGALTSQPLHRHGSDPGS

SMILES	hERG current change (%, negative = inhibition) at 10uM
CC1=NN(C(=O)CSCc2ccccc2)C(O)(c2ccccc2)C1 (stereo not drawn)	-5.02%
Nc1nc(NCCCN2CCOCC2)nc(Nc2cccc(F)c2)c1[N+](=O)[O-]	-37.6%
O=C(NCCS(=O)(=O)N1CCN(c2ccccc2F)CC1)c1cc(=O)c2ccccc2o1	15%
Cc1ccc(S(=O)(=O)N2CCC(=O)N(C(CO)Cc3ccccc3)CC2)cc1 (stereo not drawn)	-0.0627%
Cc1ccc(OCC(=O)O/N=C(\N)Cc2ccc([N+](=O)[O-])cc2)cc1C	-32.7%
CCCS(=O)(=O)N1CCCC(C(=O)N2CCN(C(=O)OCC)CC2)C1 (stereo not drawn)	3.02%
O=C(N/N=C/c1cc(Br)cc(Br)c1O)c1cccc(S(=O)(=O)N2CCOCC2)c1	11.3%
COCCOC(=O)c1cc(C(=O)c2cc(Cl)ccc2O)coc1=N	16.2%
O=C(NC1CCCCC1)NC1CC2CCCC(C1)N2C1CCCC1 (stereo not drawn)	0.263%
CC(C)(C)C(=O)Cn1nnc(-c2ccc(C(F)(F)F)cc2)n1	7.47%
CSCCC(NC(=O)c1ccccc1Cl)C(=O)N1CC(C)OC(C)C1 (stereo not drawn)	3.3%
O=c1c(-c2ccc(Cl)cc2)c[nH]n1-c1ccccc1	28.6%
COc1ccc(OCC(O)CN2C(=O)c3ccccc3S2(=O)=O)cc1 (stereo not drawn)	-11.5%
COc1ccccc1C1=NOC(C(=O)N2CCN(C(=O)c3ccco3)CC2)C1 (stereo not drawn)	-19.7%
COc1ccc(-c2[nH]n(-c3ccc([N+](=O)[O-])cc3)c(=O)c2C=NCc2ccncc2)cc1	-3.44%
C=CCNC(=S)Nc1nc2c(cc1C(=O)OCC)COC(C)(C)C2	7.99%
COc1cc(C)c(S(=O)(=O)N2CCOCC2)c(C)c1C	15.2%
Cn1nccc1NC(=O)Nc1ccc(OC(F)(F)F)cc1	-10.5%
CCCCN(C)CCCNC(=O)CS(=O)Cc1nc(-c2ccc(OC)c(OC)c2)oc1C (stereo not drawn)	-8.32%
CCOc1ncccc1C(=O)OCC(=O)c1ccccc1Br	0.975%
CCC(C)n1c(SCC(=O)Nc2cc(C)on2)nc2ccccc2c1=O (stereo not drawn)	21.7%
CC1=C(C#N)C(c2ccccc2O)C(C#N)=C(C)N1	13.8%

SMILES	hERG current change (%, negative = inhibition) at 10uM
Cc1ccc(C2CC2C(=O)NNC(=S)Nc2cccc(C)c2)cc1 (stereo not drawn)	1.35%
CN(C)CCNC(=S)Nc1ccc(F)c(F)c1F	22.3%
COc1ccccc1NC(=O)CSC1=NC(=O)C(Cc2ccccc2)C(=O)N1 (stereo not drawn)	28%
COc1cc(/C=C(/NC(=O)c2ccccc2)C(=O)Nc2ccccc2)c([N+](=O)[O-])cc1OC	-9.5%
COc1ccc(Br)cc1Cn1nnc(C(=O)Nc2ccc3c(c2)OCCO3)c1N	21.7%
C[C@H](NC(=O)C1(c2ccccc2)CCN(C(=O)[C@H]2CSCN2C(=O)OC(C)(C)C)CC1)C(=O)O	6.57%
CN(C)C(=S)Nc1ccc(N2CCOCC2)cc1	19.8%
O=C(NCCC1CCCCN1S(=O)(=O)c1ccccc1)C(=O)NC1CC1 (stereo not drawn)	1.16%
CCOC(=O)c1[nH]c2ccc(OCC)cc2c1NC(=O)CN1CCCC(C)C1 (stereo not drawn)	-18.3%
O=c1c2ccccc2ncn1Cc1ccc(Cl)c(Cl)c1	-1.7%
CCN(CC)S(=O)(=O)c1ccc(C(=O)N(c2ccccc2)C2C=CS(=O)(=O)C2)cc1 (stereo not drawn)	-14.8%
COc1ccccc1NC(=S)N(Cc1ccc(Cl)cc1)CC1CCC(C(=O)O)CC1 (stereo not drawn)	-0.117%
Nn1c(SCc2ccc(F)cc2)nnc1-c1ccccn1	3.97%
COC(=O)c1sccc1NC(=O)CSCCc1ccccn1	-5.04%
Cc1cccc(N2C(=O)N(c3ccccc3C)C3CS(=O)(=O)CC32)c1 (stereo not drawn)	9.18%
Cc1c(CNC(=O)c2cnn3c2NC(c2ccc(Br)cc2)CC3C(F)(F)F)cnn1C (stereo not drawn)	-24.7%
COc1ccc(-n2ccn(CC(=O)Nc3ccc(OC)cc3OC)c(=O)c2=O)cc1	11.3%
COc1ccc(CNc2ncc(-c3ccccc3)n2C)c(OC)c1OC.O=C(O)C(=O)O	-44.1%
COc1cccc(N2C(=O)C3ON(c4ccccc4)C(c4cccs4)C3C2=O)c1 (stereo not drawn)	9.21%
CCOC(=O)/C(C#N)=C/N=c1ccc(C)cn1C	5.77%
O=C(NC1Cc2ccccc2C1)c1cc(COc2ccc(F)cc2Cl)on1	13.3%
O=C(CN1C(=O)COc2ccc(S(=O)(=O)N3CCOCC3)cc21)NCc1ccco1	-6.61%

SMILES	hERG current change (%, negative = inhibition) at 10uM
Cn1c(Cl)cnc1C(O)(c1ccccc1)c1ccccc1	13.6%
C=CCc1cccc(CNc2nc3ccccc3n2CCN2CCOCC2)c1O	-6.61%
CCCCOC(=O)Cn1c(=N)n(CCN(CC)CC)c2ccccc21	-52.3%
C/C(=N\NC(=O)C1CC1(c1ccccc1)c1ccccc1)c1cccc([N+](=O)[O-])c1 (stereo not drawn)	-10.1%
Cc1c(Cl)cccc1NC(=O)Cn1nc(C)n2cccc2c1=O	0.727%
Cc1ccc(CNC(=O)CCS(=O)(=O)c2ccc3c(c2)NC(=O)CO3)cc1	4.46%
CCSc1nnc2ccc(-c3ccc(C)cc3)nn12	-16.9%
O=C(Nc1ccc2nc3ccccc3nc2c1)c1ccccc1	15.6%
O=C(O)CNC(=O)c1ccc(N2CCOCC2)cc1[N+](=O)[O-]	13.1%
CCOC(=O)c1cnn(-c2ccccn2)c1N	-1.64%
CNS(=O)(=O)c1cccc(C(=O)OCc2cc(C(C)=O)ccc2OC)c1	1.6%
COc1ccc(S(=O)(=O)n2nc(-n3c(C)ccc3C)c3c(F)cccc32)cc1OC	13.4%
CCc1nc(Nc2ccc(NC(C)=O)cc2)c2oc3ccccc3c2n1.Cl	17.9%
CC(NC(N)=O)C(=O)NCC(=O)OCc1ccccc1 (stereo not drawn)	12.9%
COCCn1c(SCC(N)=O)nc2c(c1=O)SC(C)C2 (stereo not drawn)	-2.6%
CC(=O)[C@@]1(O)CC[C@H]2[C@@H]3C[C@H](C)C4=CC(=O)CC[C@]4(C)[C@H]3CC[C@@]21C	-2.92%
O=C(Cn1ncc2c3ccccc3n(Cc3ccccc3F)c2c1=O)NCCN1CCOCC1	-55.2%
O=C(NCC1CCCO1)c1cc2ccccc2cc1O (stereo not drawn)	-12.3%
O=C(c1ccccc1)N1CCN(c2ccc([N+](=O)[O-])c(NCC3CCCO3)c2)CC1 (stereo not drawn)	-76.9%
N#Cc1ccc(-c2ccc(OCC(=O)NCC(=O)Nc3ccc(F)c(F)c3F)cc2)cc1	-7.98%
N/C(=N\OC(=O)/C=C/c1ccccc1Cl)c1ccccn1	5.88%
COC(=O)Cn1cc(C(=O)c2ccco2)c2ccccc21	-4.24%

SMILES	hERG current change (%, negative = inhibition) at 10uM
CC(=O)Nc1sc(N/N=C\c2ccccc2F)nc1-c1cccs1	-22.5%
Cc1cc2nnc(SCC(=O)NCC(c3ccccc3)N(C)C)n2c2ccccc12 (stereo not drawn)	-8.13%
COc1cccc(CNC(=O)c2ccc(CS(=O)Cc3ccc(C)cc3)o2)c1 (stereo not drawn)	5.9%
COc1ccc(NC(=O)c2cccc(S(=O)(=O)N3CCCCCC3)c2)cc1	1.51%
N#Cc1ccc(CN2CCN(C(=O)CNS(=O)(=O)c3ccc4c(c3)OCCCO4)CC2)cc1	-20.8%
Nc1ccc2nn(-c3cccc4ccccc34)nc2c1	4.08%
CCOC(=O)c1cc2c(=O)n3ccccc3nc2n(C(C)C)c1=NC(=O)c1ccncc1	-67.5%
Cc1cccn2c(N)c(-c3ccccc3)nc12	-1.88%
Cc1ccc(C)c2c1cc(C)c1nnc(SCC(=O)NCc3ccc4c(c3)OCO4)n12	-23.6%
Cc1ccc(S(=O)(=O)Nc2cccc(-c3ccc(N4CCCCCC4)nn3)c2)cc1	17.1%
CCCCn1cnc2c([nH]c3ccccc32)c1=O	15.7%
CCCN(CC1CCCO1)C(=O)CCc1nnc(CCc2ccc(OC)cc2)o1 (stereo not drawn)	12.7%
COc1ccc(NC(=O)CN(C)CC(=O)Nc2cccc(C(C)=O)c2)cc1	18.5%
COc1ccc(-c2cc(C(=O)N/N=C(\C)c3cccnc3)c3ccccc3n2)cc1	8.87%
O=C(CSc1nnc(Cc2cccs2)n1Cc1ccco1)Nc1ccc(Br)cc1	-14.2%
O=c1c2sccc2n(Cc2cccc(F)c2)c(=O)n1-c1ccc(F)cc1	-7.59%
COc1cc(OC)c(C#N)c(S(=O)Cc2ccccc2)c1 (stereo not drawn)	6.12%
CC1CCCN(C2(O)C(=O)Nc3c(C(F)(F)F)cccc32)C1 (stereo not drawn)	9.9%
CC(C)(C)c1nc2sc3c(c2c(=O)o1)CCCC3	17.6%
c1cc2c(cn1)cnc1cscc12	15.3%
Fc1c(F)c(F)c(NC2=NCCCCC2)c(F)c1F	20%
